Laboratory results from PubChem BioAssay AID624296 (National Center for Advancing Translational Sciences (NCATS), 2012).
Hit rate of the full screen: of about 350,000 compounds, about 9,900 (2.8%) were called active. This list was built around the results that the source calls inconclusive (neither active nor inactive); the mix of calls is not that of the screen. Calls follow the shape of the dose curve; as a rule, active = well fitted activation curve with a large enough effect; inconclusive = small, poorly fitted or top-dose-only effect; inactive = no such curve, though single readings can be large or run the other way. No potency is given beside an inconclusive call; the fits are too rough.

Assay: A quantitative high throughput screen for small molecules that induce DNA re-replication in MCF 10a normal breast cells. Also: nearly all actives have a fitted effect of over 50% in size. As to activity, positive = re-replication: % of control where 0% means no effect.
Settings: MCF 10A DNA re-replication, Hoechst nuclear intensity, 48 h; activity, positive = re-replication: at 46.1 µM (top of the series)
Potency is read from the fitted curve at half-maximal effect; tags tell the direction and shape of the fitted curve.

Which “activity, positive = re-replication” value does the source give for Cn1c(-c2ccc3c(c2)OCO3)cnc1NCc1cccc(O)c1 here?
Its value is inactive: -4.1%.

Which Potency does the source give for COc1ccc(-c2nn(-c3ccccc3)cc2/C=N/Nc2ccc3ccccc3n2)cc1OC here?
Its Potency is inconclusive [activator, full curve].

With O=C(O)CCn1cc(-c2ccc(Cl)cc2)nc1-c1ccncc1 as the compound, how does the Potency read?
The Potency was inconclusive [activator, full curve, poor fit].

Which Potency does the source give for O=C1C(=O)N(CCS(=O)(=O)c2ccccc2)c2ccc(F)cc21 here?
Its Potency is inconclusive [activator, single point].

With CCOC(=O)Cc1csc(NC(=O)c2ccc(C)c(S(=O)(=O)N3CCOCC3)c2)n1 as the compound, how does the “activity, positive = re-replication” value read?
Its value is inactive: -4.94%.

Which Potency does the source give for COc1cc2c(cc1OC)/C(=C/c1ccc(Cl)cc1)C(=O)OC2 here?
The Potency was active: 13 µM.

Which Potency does the source give for Cc1nn(-c2ccc(F)cc2)c(Cl)c1/C=N/NC(=O)c1cccs1 here?
Its Potency is inconclusive [activator, single point].

With COc1ccc(OCc2cccc(C(=O)Nc3cc(C)on3)c2)cc1 as the compound, how does the Potency read?
Its Potency is inconclusive [activator, single point].

For COc1ccc(C(CNC(=O)c2oc3ccc(Cl)cc3c2C)N2CCCCC2)cc1 (stereo not drawn), which Potency is on record?
Its Potency is inconclusive [activator, partial curve, poor fit].

With Cc1ccc(NC(=O)COC(=O)Cc2c[nH]c3ccccc23)cc1F as the compound, how does the “activity, positive = re-replication” value read?
The value was inactive: 3.65%.

Which Potency does the source give for CC(C)c1ccc(NC(=O)NCc2ccc(F)cc2)cc1 here?
The Potency was inconclusive [activator, single point].

With COc1ccc(-c2cc(C(F)(F)F)n3nc(C(=O)Nc4cc(C)on4)cc3n2)cc1OC as the compound, how does the Potency read?
Its Potency is inconclusive [activator, single point].

Which “activity, positive = re-replication” value does the source give for O=C(c1ccc(N2CN(C(=O)c3ccco3)c3nc4ccccc4nc32)cc1)N1CCOCC1 here?
The value was inactive: 2.93%.

Which “activity, positive = re-replication” value does the source give for C=CCN(c1ccccc1C(=O)O)S(=O)(=O)/C=C/c1ccccc1 here?
The value was inactive: 20.7%.

Which Potency does the source give for COc1ccc(-n2c(COc3cccc4ccccc34)nnc2SC(C)C(=O)O)cc1 (stereo not drawn) here?
The Potency was inconclusive [activator, full curve, poor fit].

Which Potency does the source give for C/C(CC(=O)Nc1ccc(Cl)cc1Cl)=N\NC(=O)c1cnccn1 here?
Its Potency is inconclusive [activator, partial curve, poor fit].

With CCCCN(C(=O)c1ccc(N(C)S(=O)(=O)c2ccc(C)cc2)cc1)c1c(N)n(CCCC)c(=O)[nH]c1=O as the compound, how does the “activity, positive = re-replication” value read?
The value was inactive: 1.42%.

For O=C(Nc1cc(=O)c2ccccc2o1)N1CCCCC1, which Potency is on record?
The Potency was inconclusive [activator, single point].

With COC(=O)c1nn(Cc2ccccc2)c(=O)c2ccccc12 as the compound, how does the “activity, positive = re-replication” value read?
The value was inactive: 11.9%.

Which Potency does the source give for O=C(N/N=C/C(Br)=C/c1ccccc1)c1ccccc1F here?
The Potency was inconclusive [activator, single point].

Which Potency does the source give for CC1=NN(/C(=N\c2nnc(C)s2)Nc2ccc(C(C)(C)C)cc2)[C@H](c2ccc(C)cc2)S1 here?
Its Potency is inconclusive [activator, single point].

For COc1ccc(CN2CCN(Cc3cc(=O)oc4cc(C)ccc34)CC2)c(OC)c1OC, which Potency is on record?
The Potency was active: 6.51 µM.

With COc1ccc(CC(=O)Nc2nn(C)c3nc4c(C)cccc4cc23)cc1 as the compound, how does the Potency read?
The Potency was active: 3.26 µM.

Which Potency does the source give for CC1Cc2ccccc2N1S(=O)(=O)c1cccc(C(=O)c2nccn2C)c1 (stereo not drawn) here?
The Potency was inconclusive [activator, single point].

For Cc1ccc(S(=O)(=O)c2nnn3c2nc(Nc2cccc(C)c2)c2ccccc23)cc1, which Potency is on record?
The Potency was inconclusive [activator, full curve, poor fit].

With Nc1nc(SCc2ccccc2)c2ncn(C3CCCCC3)c2n1 as the compound, how does the Potency read?
The Potency was inconclusive [activator, partial curve, poor fit].

With CC1=NN(c2cccc(Cl)c2)C(=O)C1 as the compound, how does the Potency read?
Its Potency is inconclusive [activator, single point].

For CN(C)C(=O)/C(=C/c1ccc(-c2cccc([N+](=O)[O-])c2)o1)NC(=O)c1ccccc1, which Potency is on record?
Its Potency is inconclusive [activator, full curve, poor fit].

For O=C(COC(=O)C1CC2C=CC1C2)Nc1cccc(S(=O)(=O)N2CCCCCC2)c1 (stereo not drawn), which Potency is on record?
Its Potency is inconclusive [activator, full curve].

Which Potency does the source give for CCn1ncc(C2=NOC(C(=O)N3CCC(C(N)=O)CC3)C2)c1C (stereo not drawn) here?
The Potency was inconclusive [activator, partial curve, poor fit].

Which Potency does the source give for COc1cc(OC)cc(-c2c(-c3cccs3)c3cc(-c4ccc(C(N)=O)cc4)ccc3n2C)c1 here?
The Potency was active: 16.4 µM.

Which Potency does the source give for COc1ccc(C(=O)NC23CC4CC(CC(C4)C2)C3)cc1OC here?
Its Potency is inconclusive [activator, single point].

Which Potency does the source give for O=C(NCc1ccccc1)[C@H]1C[C@@H]1[C@H](NP(=O)(c1ccccc1)c1ccccc1)c1ccccc1 here?
The Potency was inconclusive [activator, full curve, poor fit].

Which Potency does the source give for O=S(=O)(NC1CCCCCCC1)c1ccc(F)cc1 here?
Its Potency is inconclusive [activator, partial curve, poor fit].

Which Potency does the source give for Cc1ccc(C(=O)c2c3ccccc3[n+]([O-])n2CCC(N)=O)cc1 here?
Its Potency is inconclusive [activator, full curve, poor fit].

For Cc1ccc(/C=C2/NC(=O)N(Cc3ccc(Br)cc3)C2=O)o1, which Potency is on record?
Its Potency is active: 16.4 µM.

For CN1C=C/C(=C\c2cc[n+](C)c3ccccc23)c2ccccc21, which Potency is on record?
The Potency was active: 0.58 µM.

For CC(=O)Oc1c(C)cc(OCC(O)CNC(C)C)c(C)c1C (stereo not drawn), which “activity, positive = re-replication” value is on record?
Its value is inactive: 1.92%.

With S=C1NCCNC(=S)NCCOCCOCCOCCN1 as the compound, how does the Potency read?
The Potency was inconclusive [activator, partial curve, poor fit].

Which Potency does the source give for CCC(=O)N1N=C(c2ccc(C)o2)CC1c1ccc(N(C)C)cc1 (stereo not drawn) here?
The Potency was inconclusive [activator, single point].

Which “activity, positive = re-replication” value does the source give for COc1ccc(S(=O)(=O)N2CCCCC2)cc1NC(=O)c1cnc(C)cn1 here?
The value was inactive: -3.13%.

For COCCNc1nnc(SCC(=O)Nc2nnc(-c3ccccc3)o2)s1, which “activity, positive = re-replication” value is on record?
Its value is inactive: 1.9%.

For CC1CCCCN1C(=O)CSc1nc(N)nc(N)n1 (stereo not drawn), which “activity, positive = re-replication” value is on record?
Its value is inactive: -0.0414%.

With CC1(C)CC(NS(=O)(=O)OCC(Cl)(Cl)Cl)c2cc(C#N)ccc2O1 (stereo not drawn) as the compound, how does the Potency read?
Its Potency is inconclusive [activator, single point].

With N#C/C(=C\c1ccc(OC(F)F)cc1)C(=O)N1CCCCC1 as the compound, how does the Potency read?
The Potency was active: 13 µM.

With CCN1CCN(CCCNC(=O)c2ccc(/C=C3/Oc4ccccc4N(Cc4cccc(C)c4)C3=O)cc2)CC1 as the compound, how does the Potency read?
Its Potency is active: 1.84 µM.

With COc1cc(CNC(C)c2ccccc2)cc(Br)c1OCc1ccccc1 (stereo not drawn) as the compound, how does the Potency read?
The Potency was inconclusive [activator, single point].

Which Potency does the source give for O=c1c(-c2cccc(Cl)c2)c[nH]n1-c1ccccc1 here?
Its Potency is inconclusive [activator, single point].

For CC(=O)C12CCCCC1CC1[C@@H]3CC(C)C4=CC(=O)CC[C@]4(C)C3CC[C@@]12C (stereo partly drawn), which Potency is on record?
The Potency was inconclusive [activator, single point].

With O=C(NCc1cccnc1)/C(=C/c1ccc(-c2cccc(C(F)(F)F)c2)o1)NC(=O)c1ccccc1 as the compound, how does the Potency read?
Its Potency is inconclusive [activator, single point].

Which “activity, positive = re-replication” value does the source give for Cc1oc(-c2ccc(Cl)cc2)nc1CN1CCC(C(=O)NCC2CCCO2)CC1 (stereo not drawn) here?
The value was inactive: -2.59%.

Which Potency does the source give for CCOC(=O)NC1(Nc2ccc(C)cc2)Oc2ccccc2O1 here?
The Potency was inconclusive [activator, partial curve, poor fit].

For COc1ccc(-n2nc(C(=O)NCC(=O)NCCc3ccc(OC)c(OC)c3)c3ccccc3c2=O)cc1Cl, which Potency is on record?
Its Potency is inconclusive [activator, single point].

Which Potency does the source give for Cc1c(Cc2ccccc2)c(NCCN(C)C)n2c(nc3ccccc32)c1C#N here?
Its Potency is active: 23.1 µM.

With O=C(Nc1ccc(OC(F)(F)F)cc1)C1CCCN(S(=O)(=O)c2cccnc2)C1 (stereo not drawn) as the compound, how does the Potency read?
The Potency was inconclusive [activator, single point].

Which Potency does the source give for COc1ccc(NS(=O)(=O)c2cc(NC(=O)CCSc3ccccc3)ccc2OC)cc1 here?
Its Potency is inconclusive [activator, partial curve, poor fit].

With O=C(CN1C(=O)NC(c2ccccc2)(c2ccccc2)C1=O)Nc1ccc2[nH]c(=O)[nH]c2c1 as the compound, how does the “activity, positive = re-replication” value read?
The value was inactive: -0.769%.

For COc1ccc(CCNC(=O)CSc2cn(Cc3ccccc3)c3ccccc23)cc1OC, which “activity, positive = re-replication” value is on record?
Its value is inactive: -0.378%.

For CC(=O)c1c(C)[nH]c(C(=O)Nc2ccc(C)c(S(=O)(=O)N(C)C)c2)c1C, which “activity, positive = re-replication” value is on record?
Its value is inactive: 0.901%.

With Cc1ccc(S(=O)(=O)Nc2ccccc2-c2ccccc2NS(=O)(=O)c2ccc(C)cc2)cc1 as the compound, how does the Potency read?
The Potency was inconclusive [activator, single point].

For Clc1ccc(C2CC(c3ccccc3)Nc3ncnn32)cc1 (stereo not drawn), which “activity, positive = re-replication” value is on record?
Its value is inactive: -0.44%.

Which Potency does the source give for O=C(N/N=C/C(c1ccccc1)c1ccccc1)c1ccccc1F here?
Its Potency is inconclusive [activator, single point].

For Cc1ccc(S(=O)(=O)c2c(COC(=O)c3ccc(Cl)cc3)c(-c3ccccc3)nn2C)cc1, which Potency is on record?
The Potency was inconclusive [activator, partial curve, poor fit].

For COc1ccc(NC(=O)COC(=O)CNC(=O)COc2ccccc2)cc1OC, which Potency is on record?
Its Potency is inconclusive [activator, single point].

Which “activity, positive = re-replication” value does the source give for CC(=O)N1Cc2ccccc2C(C)CC12CCCC2 (stereo not drawn) here?
The value was inactive: -0.436%.

With CCOc1ccc(S(=O)(=O)N2CCCCC2)cc1NC(=O)Cc1ccsc1 as the compound, how does the “activity, positive = re-replication” value read?
Its value is inactive: 2.89%.

For COC(=O)c1ccc(/C=C/c2c(-c3ccc(OC)cc3)sc3ccccc23)cc1, which Potency is on record?
The Potency was inconclusive [activator, single point].

With O=C(CNC(=O)c1cccc(F)c1)N/N=C/c1cc(Br)ccc1OC(=O)/C=C/c1ccco1 as the compound, how does the “activity, positive = re-replication” value read?
The value was inactive: 9.99%.
